Source: the supplement of paper PMC3334620
Whole data set: some 33,000 sequences, median “E-score (-0.5 to 0.5)” near -0.012, cut for the highest 2% near 0.29. Some of the results follow.

Molecular target: T1, Ybr033w (UniProt P38073)
T1 sequence: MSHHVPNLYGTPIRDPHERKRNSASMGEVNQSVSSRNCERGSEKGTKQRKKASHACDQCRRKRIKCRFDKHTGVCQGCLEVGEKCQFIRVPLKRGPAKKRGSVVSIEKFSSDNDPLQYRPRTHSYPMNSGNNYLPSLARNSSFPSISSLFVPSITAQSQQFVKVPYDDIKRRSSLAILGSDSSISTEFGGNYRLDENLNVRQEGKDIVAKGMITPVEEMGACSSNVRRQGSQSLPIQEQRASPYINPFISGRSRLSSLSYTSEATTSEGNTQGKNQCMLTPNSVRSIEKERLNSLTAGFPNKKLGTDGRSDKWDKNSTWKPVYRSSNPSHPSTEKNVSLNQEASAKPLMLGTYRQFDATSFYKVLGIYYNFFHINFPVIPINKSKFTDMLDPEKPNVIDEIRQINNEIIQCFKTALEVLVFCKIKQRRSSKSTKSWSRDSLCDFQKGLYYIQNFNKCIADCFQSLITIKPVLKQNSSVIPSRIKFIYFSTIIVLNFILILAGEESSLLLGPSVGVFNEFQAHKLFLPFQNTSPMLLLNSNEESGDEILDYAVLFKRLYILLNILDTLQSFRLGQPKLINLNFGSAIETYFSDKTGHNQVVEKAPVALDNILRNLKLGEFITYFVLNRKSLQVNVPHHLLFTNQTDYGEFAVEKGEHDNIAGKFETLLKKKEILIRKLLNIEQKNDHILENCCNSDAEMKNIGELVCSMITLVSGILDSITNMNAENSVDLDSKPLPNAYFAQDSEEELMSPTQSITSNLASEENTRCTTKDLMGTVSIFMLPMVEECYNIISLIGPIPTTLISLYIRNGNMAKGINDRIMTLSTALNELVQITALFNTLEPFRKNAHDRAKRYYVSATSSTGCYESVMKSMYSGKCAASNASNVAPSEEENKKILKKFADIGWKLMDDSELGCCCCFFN
Assay: PBM E-score (8-mer binding enrichment) (E-score (-0.5 to 0.5)); higher = stronger / more preferred TF binding; most listed sequences are background and not binding sites
Conditions: protein concentration: 200 nM; construct: GST-full length
Procedure, shortened: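 The E-score, a modified Wilcoxon-Mann-Whitney statistic, was computed by the Universal PBM Analysis Suite for every ungapped eight-base word pooled with its reverse complement. Scans behind it were normalised with masliner after bound GST-tagged yeast transcription factors were detected with fluorescent anti-GST. The proteins, at about 100-200 nM, had been applied to universal all-10-mer Agilent arrays made double-stranded by primer extension.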

Row | Sequence | PBM E-score
1 | AAGCAGAG | 0.0728
2 | ACTCCTGC | -0.0369
3 | GCACTTTA | 0.186
4 | ACGCGACA | 0.0211
5 | GCAGACCA | -0.11
6 | ATCTCGGG | 0.0364
7 | CATCTTAG | -0.0257
8 | GTTTACCA | 0.0505
9 | ATCGATAG | 0.0428
10 | CGGCTCAC | -0.114
11 | AATGGAAA | 0.0971
12 | CGCGAGCC | 0.0104
13 | CCGGGGAA | -0.146
14 | GCAGAGAA | -0.00583
15 | GCCGGTCC | -0.344
16 | GATTATAA | 0.172
17 | ACTGGTCA | 0.11
18 | ATTGAGAG | 0.115
19 | AGCGGTAC | 0.059
20 | AAAGGATA | 0.251
21 | AAGGGCAT | -0.103
22 | GTCTCAAC | -0.0751
23 | AATCACAA | 0.135
24 | AGTCCGAT | 0.0266
25 | CAGTGCGA | -0.149

Row | Sequence | PBM E-score
26 | CCGAAGCC | -0.251
27 | AGCTGATG | 0.123
28 | CCGGACTC | 0.0669
29 | GCCCAACA | -0.21
30 | AATTAGTC | 0.212
31 | AATCCCCT | -0.172
32 | CAGTACAG | -0.0166
33 | CAGGCTTC | 0.08
34 | AGGGTACG | -0.17
35 | ATCCTAGA | -0.0202
36 | ACAGTAGA | 0.194
37 | CAGTAGGG | -0.0739
38 | AGTGTGAC | 0.0281
39 | ACGTCCCC | -0.283
40 | ATAGTCGG | -0.0396
41 | GGCGCGGA | -0.185
42 | TTCTCCAA | 0.11
43 | CGCTAACG | 0.0274
44 | GCAAGGCC | -0.0987
45 | CCTAAACA | -0.0857
46 | ATATCCAA | 0.176
47 | TAGTCTAA | -0.101
48 | AATTGTTC | 0.339
49 | CCGAGCGC | -0.0527
50 | CGTGGGTA | -0.248

Row | Sequence | PBM E-score
51 | CTTGTCAC | -0.0493
52 | AGCATGAC | -0.0225
53 | AGATGTGG | -0.00553
54 | CTGAGTCC | -0.126
55 | GCAAGTAC | -0.0854
56 | AATCGATC | 0.127
57 | AAGACAAG | 0.108
58 | GAAAGGGC | -0.258
59 | AACCCGCC | -0.0266
60 | GGGAGACC | -0.426
61 | GTGATGTA | 0.217
62 | GTACAGAA | 0.0897
63 | CTCACGCC | -0.142
64 | CACACTGA | -0.19
65 | GTCGCCCA | -0.229
66 | ATATAGGG | -0.00433
67 | TGCCTTAA | 0.0475
68 | CTACTACC | 0.15
69 | ACACGTAA | 0.0814
70 | GGTTAAAA | 0.0924
71 | TACCCCCA | -0.229
72 | AGCCTTAC | -0.28
73 | CGTGCTGA | 0.0996
74 | AAACGACG | 0.093
75 | GCCGGGAA | -0.0582

Row | Sequence | PBM E-score
76 | AACCTAGG | -0.00742
77 | CCGAGGGC | -0.1
78 | GATCCTGA | 0.00833
79 | CAGCATCC | -9e-05
80 | CGGGGCAG | -0.147
81 | CCGACGAG | -0.0826
82 | CTTGAATC | 0.105
83 | CTGGAGGA | -0.0112
84 | CACCCAAG | -0.135
85 | GAGAACTA | 0.101
86 | TCATAGCA | 0.156
87 | CAAGATCC | -0.0366
88 | GGAGGGGA | -0.121
89 | GCCAACAA | -0.0138
90 | CCAGCAAG | -0.186
91 | TGCGGTAA | 0.0291
92 | CACGGCCA | -0.15
93 | CCTATGCC | -0.18
94 | GAGGTAGC | -0.172
95 | CGGTCACA | -0.129
96 | ACAAAACG | 0.00516
97 | AATAGTGT | 0.289
98 | ACCGGTCC | -0.319
99 | CCTCTGTA | -0.0969
100 | GACTAACA | 0.0397

Row | Sequence | PBM E-score
101 | AAGTCGTG | -0.0301
102 | AGCAGACC | -0.0803
103 | GAAGCCCC | -0.353
104 | GAAATACC | 0.189
105 | AGGAGAGG | -0.26
106 | AGGCAGGG | -0.0987
107 | ATAGGAAT | 0.135
108 | CAGCGAGC | -0.0742
109 | CAGCATGG | -0.0923
110 | ATATGACC | -0.104
111 | CTTCATGA | 0.132
112 | ACGCACCC | -0.267
113 | CTACGTTC | -0.0534
114 | ATCAGAAT | 0.176
115 | CTCTGTAC | -0.0027
116 | GAACGCTC | -0.133
117 | AGCCCGCC | -0.265
118 | AGCAATCA | 0.129
119 | ACACTAAC | 0.164
120 | CACACCCA | 0.113
121 | ACTAGTGC | -0.0442
122 | ATTTTTGG | 0.0437
123 | CGATAGAC | -0.138
124 | GTCTCCAA | 0.0412
125 | CCTCCTAC | -0.107

Row | Sequence | PBM E-score
126 | GTACTAAA | 0.253
127 | CCGACGTA | -0.169
128 | CACCCGGA | 0.116
129 | CCCCGGAC | -0.185
130 | CAACGGAG | -0.0398
131 | CCACTCAG | -0.0712
132 | CTTACAGC | 0.00203
133 | ATCGCCCC | -0.345
134 | CTTACTAC | 0.144
135 | CAGGACTG | -0.233
136 | GGAGGGAC | -0.188
137 | CGAACGCG | 0.00834
138 | TCCCTCGA | -0.22
139 | CGTTTCGC | -0.18
140 | GCAACTAA | 0.213
141 | GTCGTCTA | -0.0547
142 | AGTAAACA | 0.251
143 | AGGCCTCA | -0.334
144 | CAAGAAGC | 0.15
145 | ACTAACGA | 0.107
146 | CGTCGTGA | -0.239
147 | GCCCCGCC | -0.072
148 | CCTTCATA | -0.0235
149 | AGGGGACT | -0.203
150 | GAGTTAGC | 0.0319

Row | Sequence | PBM E-score
151 | ACCTTTGG | -0.336
152 | GTGCGCAA | -0.227
153 | ATGCTACA | 0.0818
154 | CCTGCACG | -0.159
155 | AAGGTAGC | -0.0713
156 | CGTAAGAA | 0.0778
157 | CTATTGAC | 0.19
158 | AGAGCTGC | -0.262
159 | GATAATCC | 0.375
160 | AGTATAGC | -0.00884
161 | AGCGTTCG | -0.153
162 | ATAGGGCG | 0.0123
163 | ATAAGCCA | -0.12
164 | CGCCCACA | -0.0767
165 | ACAGGTGG | -0.153
166 | GACCATAA | -0.084
167 | AGTGCGTC | -0.168
168 | CGCGTACA | -0.22
169 | TAAAGGAA | 0.162
170 | CGTAGACC | -0.168
171 | CCGCCGGA | -0.0333
172 | GATTGTCC | -0.0168
173 | GCTCACGA | -0.0945
174 | ATGCTGTC | -0.093
175 | ATGCGTGA | 0.117

Row | Sequence | PBM E-score
176 | AACCAAGC | -0.0656
177 | AACCACGC | -0.0972
178 | ACAGTTAC | 0.0005
179 | CGGTCGGA | -0.122
180 | ACAATATC | 0.293
181 | CTATGGTA | 0.094
182 | ATCACCGG | -0.173
183 | ATTCCGTA | 0.287
184 | ATTTGGTG | 0.162
185 | ACCATGTA | 0.0954
186 | GCTTAAAC | 0.0164
187 | CCGCATAG | -0.0455
188 | CTCGCCAA | -0.0378
189 | CATTACTC | 0.11
190 | AGGAGCAG | -0.336
191 | AAACCATT | 0.0861
192 | GTAATGAA | 0.154
193 | ATGTGCCC | -0.0255
194 | GAGAACGC | -0.147
195 | CCTGAGTC | 0.0158
196 | CTGCTCGA | -0.298
197 | AAACTCGA | 0.135
198 | AGGTCCAG | 0.0347
199 | CAGAAGAC | 0.131
200 | CGCGTGCC | -0.174

Row | Sequence | PBM E-score
201 | ACCATATG | -0.107
202 | TAGCCCCA | -0.07
203 | ACACATGG | -0.0966
204 | CTAAGGAA | 0.0694
205 | GTGAGGCA | -0.173
206 | CCCCCTCC | -0.436
207 | AAGTCCCT | -0.0649
208 | GGAGAAGA | -0.0783
209 | TCCCCTCA | -0.098
210 | CTTTGCTA | 0.0685
211 | CGCCGTAA | -0.00075
212 | GCGTTTAC | -0.152
213 | GAATCAGC | -0.0381
214 | CATGTCAA | 0.0462
215 | AGTTAACT | -0.0606
216 | ATATTGGG | -0.0335
217 | CCAAAGCG | -0.111
218 | AATGACCC | -0.0307
219 | ACAGGGTG | -0.236
